Experimental data published in paper PMC7819943, “Rice protein-binding microarrays: a tool to detect cis-acting elements near promoter regions in rice”.
This is one part of the list.

target: T1, OsWOX13 (Oryza sativa, UniProt Q5QMM3 1-267); test: protein-binding microarray (RPBM); PBS, 2% BSA, 51.3 ng/ul salmon testes DNA, 50 uM zinc acetate, 200 nM TF, 25 C, 1 h; high values mean tight binding; details: protein: recombinant; tags: N-terminal polyhistidine and DsRed monomer fusion (pET32a); label: CyDye5-dUTP incorporated in the synthesized complementary strand; 3' TTTTT single-stranded linker to array surface; dsDNA, one strand shown
T1 sequence: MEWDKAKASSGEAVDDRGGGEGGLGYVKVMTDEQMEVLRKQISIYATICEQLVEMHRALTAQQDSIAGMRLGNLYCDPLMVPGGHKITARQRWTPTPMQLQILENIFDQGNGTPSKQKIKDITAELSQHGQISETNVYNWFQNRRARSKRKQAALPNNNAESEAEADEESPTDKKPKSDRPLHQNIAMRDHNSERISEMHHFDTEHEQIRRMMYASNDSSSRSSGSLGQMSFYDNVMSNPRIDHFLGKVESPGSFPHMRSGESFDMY
In short: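 For the binding signal, per-feature fluorescence intensity was read in arbitrary units on an Axon 4000B scanner. Before scanning, a 2% BSA-blocked custom Agilent array made double-stranded with Cy5-dUTP was washed after 1 h at 25 °C with 200 nM protein and 50 µM zinc acetate. The proteins were Ni–NTA-purified transcription factors with N-terminal polyhistidine and DsRed fusions, expressed in E. coli BL21-CodonPlus.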

Row | Sequence | binding signal
1 | AATAATTTGGTTCCTGGACGAATTGGCCCAGGTTTCGAGTCGGAGTCACCTAGTGCAG | 11200 fluorescence intensity (a.u.)
2 | AGGGGTGGGATTGAGATTGGGAAATAAATAAAATGTTAGGCGGAGTCACCTAGTGCAG | 12100 fluorescence intensity (a.u.)
3 | CCTATTGAATGCTAATTAAAGGGTAAGGGTGCTCCAGATTCGGAGTCACCTAGTGCAG | 11600 fluorescence intensity (a.u.)
4 | GCTTTGGATTGAAGTAACTAAGACACATCTAGCAGGCAAACGGAGTCACCTAGTGCAG | 4890 fluorescence intensity (a.u.)
5 | CGTTTGTTAACTGTTGTCCGATCCGACCCAATCCTATCAGCGGAGTCACCTAGTGCAG | 3380 fluorescence intensity (a.u.)
6 | ATTAATGTCCAGTGACTGACGTACATTGATACGTTTTCATCGGAGTCACCTAGTGCAG | 15900 fluorescence intensity (a.u.)
7 | ATAATACGTTAATTTCAAATCACACTGGCTTATTTAAATCCGGAGTCACCTAGTGCAG | 5670 fluorescence intensity (a.u.)
8 | CCTTAATTGAGGCAACGATTTGATGCAATAATCTTTATGCCGGAGTCACCTAGTGCAG | 41100 fluorescence intensity (a.u.)
9 | TTGTTAATATGTCCAATTTAGCTTATCTTGATCTCAGTTTCGGAGTCACCTAGTGCAG | 5800 fluorescence intensity (a.u.)
10 | TCTGCTGATTATAATGTGACCTGCTTTGTGTAATTGTTGTCGGAGTCACCTAGTGCAG | 21200 fluorescence intensity (a.u.)
11 | CACAAATGGATAGAATTCGCCGAACAATTAAACAAAGATCCGGAGTCACCTAGTGCAG | 5930 fluorescence intensity (a.u.)
12 | AACTCATGATTAGAATTACACGATCTATTATGTATATTTACGGAGTCACCTAGTGCAG | 18400 fluorescence intensity (a.u.)
13 | CATGGCCTGATTAGCTGACTGAAATAGTTTATTTCACAACCGGAGTCACCTAGTGCAG | 34900 fluorescence intensity (a.u.)
14 | ACTTATAGATTGAAATAAACGAGTTCCCAAGTTAGTTTTACGGAGTCACCTAGTGCAG | 18500 fluorescence intensity (a.u.)
15 | ATCTCAATCAAAGGTCACCTACTACATACCTGCACCCATCCGGAGTCACCTAGTGCAG | 13900 fluorescence intensity (a.u.)
16 | TGTTGATGGCTAAAACACGAGTTATTTTATAACGATACAGCGGAGTCACCTAGTGCAG | 3810 fluorescence intensity (a.u.)
17 | AGAGCTAATTGGTAATGTTTCTCTCCACAAAATTTTGATGCGGAGTCACCTAGTGCAG | 35400 fluorescence intensity (a.u.)
18 | TTTCGGTGGTAAATTGACAATTACAACATGCCCTAATAGCCGGAGTCACCTAGTGCAG | 41800 fluorescence intensity (a.u.)
19 | TCTTAATTGGCATATTTCAAAAGTGGCAAATAATTAAATGCGGAGTCACCTAGTGCAG | 31400 fluorescence intensity (a.u.)
20 | CGCCCACTGAATTAATCAATCAGTAAAGCTGCCACCGTGCCGGAGTCACCTAGTGCAG | 39100 fluorescence intensity (a.u.)
21 | ATGATTTGTTTGATAATGCCCTCTGTTATTAAGGATGATTCGGAGTCACCTAGTGCAG | 20600 fluorescence intensity (a.u.)

Row | Sequence | binding signal
22 | ACAAATATCCAATTATATTGTAATTTAAATAACTAATAATCGGAGTCACCTAGTGCAG | 3900 fluorescence intensity (a.u.)
23 | AGATAATTCTTACTAGATGATTATTGTATATGCTGCTATCCGGAGTCACCTAGTGCAG | 9000 fluorescence intensity (a.u.)
24 | ATCGATTCCACGCAATCACGCGCCGTGCCATCACTACGATCGGAGTCACCTAGTGCAG | 3710 fluorescence intensity (a.u.)
25 | AAGCAATTAAGAAACACCATAATGGACACTAAATTACCATCGGAGTCACCTAGTGCAG | 9970 fluorescence intensity (a.u.)
26 | GCAGCAGATTGATCTCGATCGACCGATCCGCCCGCCAGGTCGGAGTCACCTAGTGCAG | 20100 fluorescence intensity (a.u.)
27 | CTGTGATATGAGAACGATTGAGATGATGTCTGAACACAAACGGAGTCACCTAGTGCAG | 4500 fluorescence intensity (a.u.)
28 | GATGATTTTGCTGGAGTTTTCTTTTACAACCAGAACTGTACGGAGTCACCTAGTGCAG | 15900 fluorescence intensity (a.u.)
29 | TCATAATGCATCAATCTATTACTTTAGCTATCTATTTATACGGAGTCACCTAGTGCAG | 7720 fluorescence intensity (a.u.)
30 | TACATTGATGGAGAATTTAGAAGGAAGATAAATTGAAGGACGGAGTCACCTAGTGCAG | 13700 fluorescence intensity (a.u.)
31 | TTATGATGTAATTAGGCTCAAAAGATTCGTCTCGCAATTTCGGAGTCACCTAGTGCAG | 16500 fluorescence intensity (a.u.)
32 | TGATTCAGCAATTAACTGCGATACTATCATTATTATCAACCGGAGTCACCTAGTGCAG | 7120 fluorescence intensity (a.u.)
33 | ATAAATTATACAGTGTTACTTCTCTGTTAATTGTTCATATCGGAGTCACCTAGTGCAG | 10500 fluorescence intensity (a.u.)
34 | AACTGAAATTAGTACTCTCAAACTATATTCAGATGCGTGTCGGAGTCACCTAGTGCAG | 4560 fluorescence intensity (a.u.)
35 | GAGTAATTGTTTTACTTTGTGTAACGTCATGGGACCTAGACGGAGTCACCTAGTGCAG | 10200 fluorescence intensity (a.u.)
36 | GCAGCATGATTTTGACAGTGTGAGAGGTTTGAGCAAGAATCGGAGTCACCTAGTGCAG | 3910 fluorescence intensity (a.u.)
37 | ATGATTAACCATAAGTGCTACAGTGACCCACATGTGTTAACGGAGTCACCTAGTGCAG | 20100 fluorescence intensity (a.u.)
38 | TTATACAAATTATACCTGTTAATTATTGTGATTGTTTGGTCGGAGTCACCTAGTGCAG | 36800 fluorescence intensity (a.u.)
39 | CGAATCTATTAAACATAATTAATTCGTTATTAGCAAATGTCGGAGTCACCTAGTGCAG | 11100 fluorescence intensity (a.u.)
40 | GTACATTTTAATGATTATATTATGATGATGAAAATTGTATCGGAGTCACCTAGTGCAG | 15300 fluorescence intensity (a.u.)
41 | TCTCATAATTCTTGAATAGATTTGCATGCGAAATCTATTACGGAGTCACCTAGTGCAG | 4520 fluorescence intensity (a.u.)
42 | TATATATATATATATATATATATACCCACGTGAGGACGTACGGAGTCACCTAGTGCAG | 31500 fluorescence intensity (a.u.)
